Assay results as given in publication PMC7559981.
Results are given in words; binding and its absence hold for the method and conditions named. For some assays here: In cells and extracts the contact can be indirect. Some binding calls cover weakened binding; strength is not graded here. For some assays here: Sequences can lack the tags named with a protein. One block for each molecule: values may come before it.

Sequences of proteins named here, by UniProt entry; tags and fusion partners are left off.
UniProt P35222: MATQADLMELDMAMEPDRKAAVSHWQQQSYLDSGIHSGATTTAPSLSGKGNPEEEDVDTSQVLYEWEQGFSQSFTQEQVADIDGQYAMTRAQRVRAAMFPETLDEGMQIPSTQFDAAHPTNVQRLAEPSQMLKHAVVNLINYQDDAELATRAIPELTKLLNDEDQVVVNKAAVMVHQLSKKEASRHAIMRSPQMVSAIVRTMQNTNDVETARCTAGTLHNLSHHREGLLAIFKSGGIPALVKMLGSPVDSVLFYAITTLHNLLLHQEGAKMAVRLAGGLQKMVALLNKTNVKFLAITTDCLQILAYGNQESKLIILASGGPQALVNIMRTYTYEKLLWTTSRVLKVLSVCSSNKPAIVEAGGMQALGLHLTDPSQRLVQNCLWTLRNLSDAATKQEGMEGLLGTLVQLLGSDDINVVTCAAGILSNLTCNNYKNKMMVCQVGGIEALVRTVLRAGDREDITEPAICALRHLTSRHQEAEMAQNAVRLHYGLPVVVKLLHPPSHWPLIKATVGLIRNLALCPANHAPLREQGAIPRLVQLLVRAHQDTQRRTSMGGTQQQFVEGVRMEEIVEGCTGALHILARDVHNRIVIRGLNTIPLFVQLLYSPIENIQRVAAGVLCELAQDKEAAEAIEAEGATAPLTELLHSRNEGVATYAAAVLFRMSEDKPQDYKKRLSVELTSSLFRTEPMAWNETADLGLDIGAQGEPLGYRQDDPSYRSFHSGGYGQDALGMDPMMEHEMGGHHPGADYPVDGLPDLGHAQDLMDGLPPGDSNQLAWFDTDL

What was measured:
GST-TR4-N [aa 1–125] = biological target: T1, GST-TR4-N [aa 1–125] (UniProt P49116); test: pull-down; purified GST fusion protein on glutathione-Sepharose-4B beads incubated 12 h at 4 °C with 5 μL of in vitro translated ^35S-labeled protein in GST binding buffer (50 mM HEPES pH 7.6, 50 mM NaCl, 0.1% Nonidet P-40, 5 mM EDTA, 10% glycerol); washes with 500 mM NaCl; SDS-PAGE and autoradiography; only the target purified
T1 sequence: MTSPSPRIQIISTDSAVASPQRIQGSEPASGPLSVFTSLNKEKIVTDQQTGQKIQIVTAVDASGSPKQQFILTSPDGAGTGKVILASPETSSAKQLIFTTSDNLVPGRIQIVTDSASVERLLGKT

GST-TR4-LBD [aa 224–615] = biological target: T2, GST-TR4-LBD [aa 224–615] (UniProt P49116); test: as above
T2 sequence: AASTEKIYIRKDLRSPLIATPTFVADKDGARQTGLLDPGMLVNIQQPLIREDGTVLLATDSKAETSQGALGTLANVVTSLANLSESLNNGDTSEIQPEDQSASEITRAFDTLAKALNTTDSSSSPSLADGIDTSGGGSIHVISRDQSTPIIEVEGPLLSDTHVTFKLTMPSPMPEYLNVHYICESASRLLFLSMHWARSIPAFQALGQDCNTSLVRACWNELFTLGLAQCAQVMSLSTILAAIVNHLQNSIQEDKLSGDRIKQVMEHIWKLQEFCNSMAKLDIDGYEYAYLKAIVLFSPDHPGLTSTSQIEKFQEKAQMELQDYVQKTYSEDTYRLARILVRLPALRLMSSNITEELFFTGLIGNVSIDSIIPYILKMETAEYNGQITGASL

GST-TR4-∆C [aa 1–348] = biological target: T3, GST-TR4-∆C [aa 1–348] (UniProt P49116); test: as above
T3 sequence: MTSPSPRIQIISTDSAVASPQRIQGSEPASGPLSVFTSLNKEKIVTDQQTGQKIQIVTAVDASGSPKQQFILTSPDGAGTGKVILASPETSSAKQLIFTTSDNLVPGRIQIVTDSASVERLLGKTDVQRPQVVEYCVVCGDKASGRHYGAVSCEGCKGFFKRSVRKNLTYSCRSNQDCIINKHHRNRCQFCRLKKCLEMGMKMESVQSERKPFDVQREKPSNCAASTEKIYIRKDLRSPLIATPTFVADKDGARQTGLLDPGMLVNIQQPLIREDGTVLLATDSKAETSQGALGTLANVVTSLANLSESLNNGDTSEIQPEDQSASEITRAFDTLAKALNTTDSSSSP

GST-TR4-FL [1] = biological target: T4, GST-TR4-FL (UniProt P49116); test: as above
T4 sequence: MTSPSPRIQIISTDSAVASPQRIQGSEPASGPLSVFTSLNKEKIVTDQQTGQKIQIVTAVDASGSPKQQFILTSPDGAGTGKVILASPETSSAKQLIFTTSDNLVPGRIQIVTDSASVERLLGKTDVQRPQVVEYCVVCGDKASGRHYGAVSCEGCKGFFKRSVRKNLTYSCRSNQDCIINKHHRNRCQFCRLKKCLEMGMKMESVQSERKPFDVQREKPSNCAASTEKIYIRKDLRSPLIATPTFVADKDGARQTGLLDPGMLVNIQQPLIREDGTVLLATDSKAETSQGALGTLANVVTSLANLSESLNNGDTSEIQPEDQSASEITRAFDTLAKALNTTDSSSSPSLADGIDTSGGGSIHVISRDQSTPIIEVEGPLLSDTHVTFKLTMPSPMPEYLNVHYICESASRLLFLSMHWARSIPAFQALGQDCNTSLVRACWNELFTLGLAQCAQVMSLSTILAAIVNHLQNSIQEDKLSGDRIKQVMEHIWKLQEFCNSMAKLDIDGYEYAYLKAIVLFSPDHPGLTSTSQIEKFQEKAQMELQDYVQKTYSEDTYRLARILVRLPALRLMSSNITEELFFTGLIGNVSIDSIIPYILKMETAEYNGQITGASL

GST-Slug-2 (mouse) = biological target: T5, GST-Slug-2 (mouse) (UniProt P97469); test: as above
T5 sequence: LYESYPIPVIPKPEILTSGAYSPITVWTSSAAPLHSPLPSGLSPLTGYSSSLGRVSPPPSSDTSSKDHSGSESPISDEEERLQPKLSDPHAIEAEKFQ

GST-TR4-FL [2] = biological target: T4, GST-TR4-FL; test: pull-down; GST pull-down of in vitro translated ^35S-labeled protein by purified GST-TR4 on beads, in the absence or presence of a non-radiolabeled in vitro translated competitor (TR4, Slug or Slug-2); only the target purified
[3] = biological target: T6, GAL4-Slug-ΔSNAG (aa 33–269) (mouse) (UniProt P97469); test: two-hybrid; mammalian two-hybrid in HEK293T cells: pG5-Luc co-transfected with Gal4-Slug constructs and VP16-TR4; luciferase read-out
T6 sequence: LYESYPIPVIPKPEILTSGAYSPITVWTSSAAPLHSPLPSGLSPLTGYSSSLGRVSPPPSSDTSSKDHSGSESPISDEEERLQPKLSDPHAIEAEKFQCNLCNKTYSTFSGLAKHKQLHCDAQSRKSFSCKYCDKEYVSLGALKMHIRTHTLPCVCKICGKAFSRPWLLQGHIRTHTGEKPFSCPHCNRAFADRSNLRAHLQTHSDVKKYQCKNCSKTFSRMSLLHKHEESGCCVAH

[4] = biological target: T7, GAL4-Slug-2 (aa 33–130) (mouse) (UniProt P97469); test: as above
T7 sequence: T5 sequence

[5] = biological target: T8, GAL4-Slug-ΔDBD (aa 1–130) (mouse) (UniProt P97469); test: as above
T8 sequence: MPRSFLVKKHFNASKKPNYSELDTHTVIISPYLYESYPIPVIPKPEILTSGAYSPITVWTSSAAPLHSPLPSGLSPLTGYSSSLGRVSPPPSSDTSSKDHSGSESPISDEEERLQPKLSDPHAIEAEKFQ

[6] = biological target: T9, GAL4-Slug-ΔDBD (aa 131–269) (mouse) (UniProt P97469); test: as above
T9 sequence: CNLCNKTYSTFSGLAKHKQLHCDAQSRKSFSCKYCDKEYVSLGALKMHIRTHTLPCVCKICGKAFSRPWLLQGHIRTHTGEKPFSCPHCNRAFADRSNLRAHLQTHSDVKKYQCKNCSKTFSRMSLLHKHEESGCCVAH

binding (GST-TR4-N [aa 1–125]): no binding
binding (GST-TR4-LBD [aa 224–615]): no binding
binding (GST-TR4-∆C [aa 1–348]): no binding
binding (GST-TR4-FL [1]): no binding
Molecule: ^35S-labeled β-catenin (from UniProt P35222 1-781)

binding (GST-Slug-2 (mouse)): binds
binding (GST-TR4-FL [2]): binds
B1: in vitro translated TR4 (receptor, UniProt P49116-2 1-615)
chain: T4 sequence
modifications: ^35S label (non-radiolabeled where used as competitor)

binding [3]: binds
binding [4]: binds
binding [5]: binds
binding [6]: no binding
B2: VP16-TR4 (receptor, UniProt P49116-2 1-615)
chain: T4 sequence

binding (GST-TR4-FL [2]): binds
B3: in vitro translated Slug-2 (domain or fragment, UniProt P97469 33-130)
chain: T5 sequence
